Paper PMC10726135
The list shows a part of the results. At the low end of the ranking the order means little. The protein was read in a cell extract, so binding may be indirect.

Each sequence was assayed against T1, HNF4alpha2 (COS-7 nuclear extract) (UniProt P41235) (assay: protein-binding microarray). Details: COS-7 nuclear extract on double-stranded Agilent 4x180k PBM; binding buffer, salt, pH and temperature not given; high values mean tight binding; double strand, one strand shown; sequences stand for … in …GCCTAGGGAGATTAGAGTATCGGTCGA.
T1 sequence: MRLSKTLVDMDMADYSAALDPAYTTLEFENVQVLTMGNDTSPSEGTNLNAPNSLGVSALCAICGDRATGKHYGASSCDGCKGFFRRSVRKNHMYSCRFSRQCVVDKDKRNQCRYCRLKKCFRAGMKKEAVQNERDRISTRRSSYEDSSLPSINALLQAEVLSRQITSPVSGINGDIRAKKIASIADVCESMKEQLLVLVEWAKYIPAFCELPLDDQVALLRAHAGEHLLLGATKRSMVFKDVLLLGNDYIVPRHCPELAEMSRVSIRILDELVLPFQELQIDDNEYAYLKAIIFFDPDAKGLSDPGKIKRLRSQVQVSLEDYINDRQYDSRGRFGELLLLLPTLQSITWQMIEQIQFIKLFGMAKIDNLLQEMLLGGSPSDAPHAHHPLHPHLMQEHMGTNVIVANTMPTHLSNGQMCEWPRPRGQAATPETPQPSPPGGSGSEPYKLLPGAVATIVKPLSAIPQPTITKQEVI
In the case of TCTATCTCATTACTAATCCTCTTCTGTCCT, the binding signal (log2 normalized intensity) is reported as 1.19. For TTCTGAGGAGAAGAATGAAAGCCAAGGCAG, the binding signal (log2 normalized intensity) was -1.17. In the case of GTGCCCTTTGAGATTTGCATTCATGATCTT, the binding signal (log2 normalized intensity) is reported as 1.93. GTGATCAGGTGTGGGCATTAGCAGGGAGGA was tested, and the binding signal (log2 normalized intensity) was -1.22. GGGGATGAGATCTGAAGATAAATGCCTTAG gave a binding signal (log2 normalized intensity) of -1.03. AGTGCAAGGCCCAGCTAGAAGCAGTGGGAC gave a binding signal (log2 normalized intensity) of -1.07. GAACTGGTGACCGGACACAAAAGCTGCTGC gave a binding signal (log2 normalized intensity) of -1.22. In the case of TTACTTCATAGGATTAAGTGCATACTCAAA, the binding signal (log2 normalized intensity) is reported as -0.0395. For ATGGGAATTAGGGAGTAGGGACAGCTAGTC, the binding signal (log2 normalized intensity) was -1.19. TGTGGTTCCCAAGAAGAGCCCAGACAAGCA gave a binding signal (log2 normalized intensity) of -1.02. GTGTGTAGACTCCAGGCTTGTCCTTTTGAC gave a binding signal (log2 normalized intensity) of 2.27. CCAGACACTGCTCTAGGCATTGGAGATATG gave a binding signal (log2 normalized intensity) of -0.853. In the case of GCAGATGTGTCTTTATAACAGACTGTAGGC, the binding signal (log2 normalized intensity) is reported as 0.596. GCCCTCCAAACTGAGAGATTTTTTCTTCCA showed a binding signal (log2 normalized intensity) of -1.28. TGGCTTATGCAAATGTTATGGCTGGTTTGG was tested, and the binding signal (log2 normalized intensity) was 1.81. Sequence CTGCTGAGAGAGCAGGTTGAGTATCTACCA has a binding signal (log2 normalized intensity) of -1.12. Sequence ATGACTGCAGAGCTTGCTCTCACCAGCTTC has a binding signal (log2 normalized intensity) of -1.2. For ATCAGGCTCTGGAATCTCTGGATTTCAGGT, the binding signal (log2 normalized intensity) was 0.194. TGGTTGACATACTTCTGAGTTTTATCAGCT gave a binding signal (log2 normalized intensity) of 0.132. CGTCGATTAGCTGGGGACCCGTCGCTGCTG was tested, and the binding signal (log2 normalized intensity) was -1.28. TTCTCAGAAACGCCTGGCGCTTATCTGAGC showed a binding signal (log2 normalized intensity) of -1.1. CTCCCAAGGTATCCTCCTAGAGTCCAAGGT gave a binding signal (log2 normalized intensity) of 2.68. ATCTCCAGCTTATCTGTCCATCCCTCACTC was tested, and the binding signal (log2 normalized intensity) was -0.559. GCTAAAAGTTGAATTCTTGACTTTGGACTT gave a binding signal (log2 normalized intensity) of 5.79. Sequence AGTTTATCTAAGATTCCCCCTACCCTCAAT has a binding signal (log2 normalized intensity) of 4.67. For GAAGGGCAGGGCCTGGGAGATAACCCATCT, the binding signal (log2 normalized intensity) was -1.11. AAGCAACTCCTCTGTACAGCTCTTGTGCTC gave a binding signal (log2 normalized intensity) of -1.07. In the case of TCATCAGCACATTGGTGAGAATGGAGGTAG, the binding signal (log2 normalized intensity) is reported as 0.75. With TAATTGGAAATAATGCGACTTGCCTTGTGT the binding signal (log2 normalized intensity) was 0.764. With CCAGGCTGATTTAGCTATTTGACCTTCGGC the binding signal (log2 normalized intensity) was 4.92. For AAAGTATCTAAGGGCCTAGAAGAGTTCCTG, the binding signal (log2 normalized intensity) was -1.11. AAACTGTTCAAGACTTTCAGCCAACGCTGA gave a binding signal (log2 normalized intensity) of -1.2. With TCACATCTATCTCCCTACCCTCACCCCTGC the binding signal (log2 normalized intensity) was 3.71. TTATCTTGGTGCCTGCAGAGCCTCCCCATT showed a binding signal (log2 normalized intensity) of 2.85. Sequence GGGAATTTCCAAAGAGCAGCTAGCTCCAGT has a binding signal (log2 normalized intensity) of -1.17. Sequence GGTTTATGGCTTATGCATGTTTATGTGAAT has a binding signal (log2 normalized intensity) of 1.88. Sequence AAAATATTGCCAATATCTGCCATCTACTAA has a binding signal (log2 normalized intensity) of -1.15. Sequence GAGGTTCTTGTAAGGTTCTTGTATCTGATC has a binding signal (log2 normalized intensity) of 1.48. TAACCGAAAGTCTGACCCTTGACCAAGCAG gave a binding signal (log2 normalized intensity) of 4.29. Work on TGTAGAGGAGATGTGGTGGACTTTAACGAC yielded a binding signal (log2 normalized intensity) of 2.53. With GCAAGGGTCAGAGTAAAGCTCCAGTCTCCT the binding signal (log2 normalized intensity) was -1.32. CAAATTTTGATAATTACAGAGCAAGTAGAG gave a binding signal (log2 normalized intensity) of 0.868. For GTAGGCACAAAGGTGCAAAGTACATATTTA, the binding signal (log2 normalized intensity) was 4.31. In the case of TTGTGTTATGTACTTAGTGTTTTATGTGTA, the binding signal (log2 normalized intensity) is reported as 2.54. For ATTCAGAGGTCAGGGGAGAGAGGCAAGATC, the binding signal (log2 normalized intensity) was -1.01. TTTGTTAAGTACCCACTATAGATTGTGAGA gave a binding signal (log2 normalized intensity) of 0.431. ATTTCCTGCAGGTGGTGACCCCAGACCTTA gave a binding signal (log2 normalized intensity) of 3.59. GTACAGAGAGCATTCTGCTGCTCTTTAATC gave a binding signal (log2 normalized intensity) of -0.146. Work on AGAGACCTGGCGGATAGATAGAATCTTAAC yielded a binding signal (log2 normalized intensity) of -1.12. In the case of TCTGGATGCCTCACCTGGCAAGGCAGCCTC, the binding signal (log2 normalized intensity) is reported as -1.15. GCGGAAGGACACAGATTCAGAGTCACATTT showed a binding signal (log2 normalized intensity) of -1.15. AAATTTATCTATTGGGTACAATGTTCACTA gave a binding signal (log2 normalized intensity) of 2.68. In the case of TTCGGCACCTTCTACACAGCACCCCTTGCA, the binding signal (log2 normalized intensity) is reported as 2.41. With ACAGGCTGAGGATCTAATGCACCCAGAACC the binding signal (log2 normalized intensity) was -1.14. Work on CTGTTCTAAGCACCTCTGCTTATCTCAACT yielded a binding signal (log2 normalized intensity) of -0.963. TTGGATAACCTTCTGCTGGATGCCCAGGGA gave a binding signal (log2 normalized intensity) of 1.15. CTCCTCACTATTGTGCTAATATAAGTCATT showed a binding signal (log2 normalized intensity) of 1.13. Sequence CATATCAGCTTTCTTTTCCAACCATTGACA has a binding signal (log2 normalized intensity) of 2.24. ATAAGGGTATGGATTCTGGGACCCACCCAC gave a binding signal (log2 normalized intensity) of 0.861. Work on GCGGTTCATCCAACAGGTGAGGTGGGTGTT yielded a binding signal (log2 normalized intensity) of 1.04. GCTATCAGTACTGAAACATGCCTATGACCG showed a binding signal (log2 normalized intensity) of 1.31. For GGGAGGGAACAGTCCAGAGTCTGACAGAAC, the binding signal (log2 normalized intensity) was -1.17. With TGATCGCCCTCCCCCAGAGAGAACAGTCCT the binding signal (log2 normalized intensity) was 4.9. In the case of ACATTTTAACACAGGACAAATCAAGTGAAA, the binding signal (log2 normalized intensity) is reported as -1.11. Sequence GAAAGTGAGCAGGCAGTGTCACAGAAATCA has a binding signal (log2 normalized intensity) of -1.06. For GTGGCCGGACAGGTTGGGTCTGAAGCCACA, the binding signal (log2 normalized intensity) was -1.09. AACCAAGCCTGCAGCACCTTGATGCTGGAC gave a binding signal (log2 normalized intensity) of -0.00641. For ACCCAGGCATACTCAGTTATCAACCTTATC, the binding signal (log2 normalized intensity) was -0.84. TGTCTCTGGTCAGGGAGGGCTTTAGAATGT was tested, and the binding signal (log2 normalized intensity) was 1.01. Work on TTGCTACACTGCCAAAGTTCAACCATACAC yielded a binding signal (log2 normalized intensity) of 1.42. With ATCTACTTTTTGACCTTGCAGTGGCAAGGC the binding signal (log2 normalized intensity) was 1.73. For AATACAGAGTCCAAATTCCTTGGTATGGCA, the binding signal (log2 normalized intensity) was 2.08.
